Results published in PubChem BioAssay AID1508623 (National Center for Advancing Translational Sciences (NCATS), 2021).
About 450 (0.94%) of roughly 48,000 compounds were called active. Another 19% or so got no clear call; they are omitted. The call rests on the fitted dose curve; in most records, active means well fitted inhibition curve with a large enough effect; inconclusive means small, poorly fitted or top-dose-only effect; inactive means no such curve, though single readings can be large or run the other way. Some of the results follow.

Assay: Primary qHTS for Identification of Small Molecule Inhibitors of Huntingtin Promoter Activity; further: nearly all actives have a fitted effect of over 50% in size
Conditions: HEK293 HTT promoter firefly luciferase reporter (activity 0% = vehicle and -100% = no light), 24 h; series mostly up to 57.5 µM; activity change, negative = inhibition: at the top concentration
Procedure, shortened: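 HEK293 Fluc reporter, 2,500 cells/well, 24 h pre-culture; cpds up to 57.5 uM final, 24 h 37 degrees C; Dual-Glo, 10 min RT; normalized vehicle = 0%, zero RLU = -100%.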
With COc1ccc(C(=O)N2CCc3cc(OC)c(OC)cc3C2COc2ccc3c(C)cc(=O)oc3c2)c(OC)c1 (stereo not drawn) the “activity change, negative = inhibition” value was inactive: -12.1%.
In the case of Cc1cc(C)n(-c2nc3ccccc3nc2Nc2cc(C(=O)O)ccc2C)n1, the “activity change, negative = inhibition” value was inactive: -4.76%.
In the case of Cc1ccc(CN2CCN(CC(=O)NCc3ccccc3Cl)C2=O)cc1, the “activity change, negative = inhibition” value was inactive: -5.31%.
With Cc1cc(C)cc(-n2nnc(-c3nc(-c4ccccc4F)no3)c2C)c1 the “activity change, negative = inhibition” value was inactive: 7.23%.
For CCOc1ccccc1NC(=O)CN1C(=O)C2(SCC(=O)N2c2cccc(F)c2)c2ccccc21 (stereo not drawn), the “activity change, negative = inhibition” value was inactive: -17.2%.
With Cc1c(Cl)cccc1NC(=O)CCn1nc(C)c2c(C)n(-c3ccccc3)nc2c1=O the “activity change, negative = inhibition” value was inactive: -7.54%.
In the case of COc1ccc(S(=O)(=O)N(CC(=O)NCc2ccc(C)cc2)c2ccc(Cl)cc2)cc1, the “activity change, negative = inhibition” value was inactive: -21.2%.
For COc1ccc(NC(=O)c2sc3nc(C)c(C(=O)Nc4ccc(Cl)cc4)c(-c4ccc(Br)cc4)c3c2N)cc1, the “activity change, negative = inhibition” value was inactive: -24%.
In the case of CCOc1ccc(C(=O)N2CCCCC2CCN2CCOCC2)cc1 (stereo not drawn), the “activity change, negative = inhibition” value was inactive: -5.4%.
In the case of COC(=O)C(CCSC)NC(=O)c1c(C)oc2ncn(CC(C)C)c(=O)c12 (stereo not drawn), the “activity change, negative = inhibition” value was inactive: 2.94%.
For Cc1ccc(NC(=O)C(=O)NCC(c2cccnc2)N2CCN(C)CC2)cc1F (stereo not drawn), the “activity change, negative = inhibition” value was inactive: -14.2%.
For Cc1c(Cl)cccc1NC(=O)CSc1ncccc1C(=O)Oc1ccccc1Cl, the “activity change, negative = inhibition” value was inactive: 1.57%.
In the case of CCOc1ccc(NC(=O)Cn2ccn(-c3ccc(F)c(F)c3)c(=O)c2=O)cc1, the “activity change, negative = inhibition” value was inactive: -7.18%.
With COc1ccc(CNC(=O)c2cccc(-n3cnc4cccnc43)c2C)cc1 the “activity change, negative = inhibition” value was inactive: -17.5%.
With COc1cccc(C(=O)Nc2ccc(-c3cn4cccnc4n3)cc2)c1OC the “activity change, negative = inhibition” value was inactive: 10.3%.
For COc1cc2ccccc2cc1C(=O)Nc1ccc(Cl)c(-c2nc3ccccc3o2)c1, the activity change, negative = inhibition was inactive: -26.8% [at 11.5 µM].
For CCn1ccc2cc(S(=O)(=O)N3CCC(C(=O)NCCc4ccc(C)cc4)CC3)ccc21, the “activity change, negative = inhibition” value was inactive: -4.11%.
In the case of COc1ccc(NC(=O)CSCc2cnn(-c3ccccc3)c2-n2cccc2)cc1, the “activity change, negative = inhibition” value was inactive: -22.3%.
In the case of CCC(C)NC(=O)c1ccc2nc(Cc3ccc(OC)cc3)oc2c1 (stereo not drawn), the “activity change, negative = inhibition” value was inactive: -20.7%.
In the case of COc1cc(C(=O)N2CCN(CCc3ccccn3)CC2)cc(OC)c1OC, the activity change, negative = inhibition was inactive: -15.6% [at 11.5 µM].
In the case of Cc1ccc(N(CC(=O)Nc2cc(C)cc(C)c2)S(=O)(=O)c2cccc3nonc23)cc1, the “activity change, negative = inhibition” value was inactive: -4.77%.
In the case of NS(=O)(=O)c1ccc(NC(=O)c2ccc3c(c2)CCN3S(=O)(=O)c2ccccc2)cc1, the “activity change, negative = inhibition” value was inactive: -22.9%.
In the case of CC(CC(=O)Nc1ccc(Br)cc1F)S(=O)(=O)c1ccc2c(c1)NC(=O)CO2 (stereo not drawn), the “activity change, negative = inhibition” value was inactive: -2.82%.
In the case of CC(C)c1ccc(C2N=C(N)Nc3nc4ccccc4n32)cc1 (stereo not drawn), the “activity change, negative = inhibition” value was inactive: -15.8%.
With Cc1c(Cl)cccc1NC(=O)C(C)n1nnc2sc3c(c2c1=O)CCCC3 (stereo not drawn) the “activity change, negative = inhibition” value was inactive: 5.62%.
For Cc1c(C)n(C)c2ccc(C(=O)N3CCN(c4ccccc4)CC3)cc12, the “activity change, negative = inhibition” value was inactive: -4.32%.
In the case of Cc1cc(C)cc(NC(=O)Cn2c(=O)c3ccccc3n3nncc23)c1, the “activity change, negative = inhibition” value was inactive: -11.1%.
For CCOC(=O)c1ccccc1NC(=O)c1sc2nc3n(c(=O)c2c1C)CCCC3, the “activity change, negative = inhibition” value was inactive: 4.36%.
In the case of CCc1ccc(CNC(=O)CN2C(=O)c3cccnc3Oc3ccc(C)cc32)cc1, the “activity change, negative = inhibition” value was inactive: 4.19%.
For Cc1ccc2c(=O)cc(C(=O)Nc3ccc(S(=O)(=O)N4CCCCCC4)cc3)oc2c1C, the “activity change, negative = inhibition” value was inactive: 13.1%.
For CCOC(=O)C1CCN(C(=O)C2CCN(C3=NS(=O)(=O)C(c4ccc(C)c(C)c4)=C3C)CC2)CC1, the “activity change, negative = inhibition” value was inactive: -26.7%.
For Cc1cccc(C2CC(=O)Oc3c2c(=O)n(C)c2ccccc32)c1 (stereo not drawn), the “activity change, negative = inhibition” value was inactive: -15.7%.
For CC(C)CCNC(=O)C1CCC(Cn2c(=O)c3sccc3n(CC(=O)NC(C)C)c2=O)CC1 (stereo not drawn), the “activity change, negative = inhibition” value was inactive: -8.31%.
In the case of Cc1ccc(-n2c(=O)c3oc4ccccc4c3n(Cc3ccccc3F)c2=O)cc1C, the “activity change, negative = inhibition” value was inactive: -6.45%.
In the case of O=C(Cn1c(=O)n(-c2ccc(F)c(Cl)c2)c(=O)c2sc3ccccc3c21)NC1CCCC1, the “activity change, negative = inhibition” value was inactive: -15.2%.
In the case of COc1ccc(CNC(=O)c2cc3c(s2)-c2ccccc2OC3)cc1, the “activity change, negative = inhibition” value was inactive: -14.6%.
With CCC(C)NC(=O)C(=O)Nc1c2c(nn1-c1ccccc1)CS(=O)(=O)C2 (stereo not drawn) the “activity change, negative = inhibition” value was inactive: -16.8%.
For COc1ccc(NC(=O)CSc2nc3c(oc4ccccc43)c(=O)n2-c2ccc(C)c(C)c2)cc1, the “activity change, negative = inhibition” value was inactive: -18.4%.
For CCOC(=O)c1c(NC(C)=O)c2c3c(sc2n1Cc1nc(-c2ccccc2C)oc1C)CCCC3, the “activity change, negative = inhibition” value was inactive: 17.9%.
In the case of O=C(c1ccc2c(c1)N(Cc1ccc(Cl)cc1)C(=O)c1ccccc1S2(=O)=O)N1CCCCC1, the “activity change, negative = inhibition” value was inactive: -27.6%.
With CC1CN(C(=O)CCC(=O)NCc2ccc(F)cc2)c2cc(Cl)ccc2O1 (stereo not drawn) the “activity change, negative = inhibition” value was inactive: -10.1%.
With O=C(CN1C(=O)CCSc2ccccc21)Nc1ccccc1F the “activity change, negative = inhibition” value was inactive: -14%.
In the case of CCOc1ccc(CCNC(=O)C2COc3ccccc3C2)cc1OCC (stereo not drawn), the “activity change, negative = inhibition” value was inactive: -15.4%.
In the case of Cc1ccc(S(=O)(=O)c2nc(-c3cccc(C)c3)oc2N2CCN(c3ccccc3)CC2)cc1, the “activity change, negative = inhibition” value was inactive: -23.1%.
With COC(=O)c1sc2cccc(F)c2c1S(=O)(=O)N1CCN(c2ccc(F)cc2)CC1 the “activity change, negative = inhibition” value was inactive: -6.4%.
With CCCSc1ncc(Cl)c(C(=O)Nc2nc3ccc(OCC)cc3s2)n1 the “activity change, negative = inhibition” value was inactive: -0.778%.
For Cc1ccc(CNC(=O)c2ccc3c(=O)n(-c4ccccc4)c(=O)[nH]c3c2)cc1, the “activity change, negative = inhibition” value was inactive: -16.7%.
For COc1cc(OC)c(NC(=O)NCc2ccc3c(c2)CCN3C(=O)c2ccccc2)cc1Cl, the “activity change, negative = inhibition” value was inactive: -20.3%.
